{"source": "PubChem BioAssay AID602310", "about": "(National Center for Advancing Translational Sciences (NCATS), 2012)", "note": "The campaign covered roughly 410,000 compounds. About 310 (0.076%) were called active. Inconclusive means that the source gave no clear call. Such entries were picked first, then a sample of the others. Calls come from the whole dose curve; as a rule, active = well fitted curve in the direction sought with a large enough effect; inconclusive = small, poorly fitted or top-dose-only effect; inactive = flat fitted curve, though single readings scatter. Potencies beside an inconclusive call are fits to weak or partial responses and may not hold up. % is set by controls: 0 for no effect and ±100 for the full control effect; potency is the fitted concentration of half-maximal effect; tags give direction and shape of the fitted curve."}
{"target": "DNA dC->dU-editing enzyme APOBEC-3G (Homo sapiens) (UniProt Q9HC16)", "sequence (Q9HC16 whole entry, looked up)": "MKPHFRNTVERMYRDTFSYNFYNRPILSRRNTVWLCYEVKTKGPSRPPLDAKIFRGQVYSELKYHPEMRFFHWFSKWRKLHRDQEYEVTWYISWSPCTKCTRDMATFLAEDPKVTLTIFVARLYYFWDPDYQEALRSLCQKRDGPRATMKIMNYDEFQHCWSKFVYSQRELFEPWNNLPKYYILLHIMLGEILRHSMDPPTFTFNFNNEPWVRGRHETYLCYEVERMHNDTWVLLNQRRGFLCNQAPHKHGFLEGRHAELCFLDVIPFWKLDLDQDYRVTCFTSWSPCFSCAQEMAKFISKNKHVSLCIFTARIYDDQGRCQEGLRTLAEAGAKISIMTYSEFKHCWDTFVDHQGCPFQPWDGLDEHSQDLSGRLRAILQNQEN", "assay": "qHTS for Inhibitors of Vif-A3G Interactions: qHTS; note: nearly all actives have a fitted effect of over 60% in size;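 for activity, negative = active: hits raise eYFP signal because A3G escapes Vif-driven loss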", "details": "HeLa A3G-eYFP + Vif (tagged APOBEC3G with the HIV-1 protein that degrades it), YFP fluorescence, overnight; series mostly up to 46.1 µM; activity, negative = active: at the top concentration", "how_it_was_run": "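HeLa cells stably expressing Vif and C-terminally eYFP-tagged A3G, seeded overnight at 37 deg C, then exposed to compound by pintool overnight at 37 deg C. Rise in yellow fluorescence (Ex 488/Em 500-530, Acumen) marks blocked Vif-driven A3G degradation.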"}
{"smiles": "CCN1CCCC1CN(Cc1cc2ccc(C)cc2[nH]c1=O)C(=S)Nc1ccc(OC)cc1OC", "note": "(stereo not drawn)", "activity, negative = active": "inactive: 4.59%"}
{"smiles": "COc1ccc(Nc2nc3cc(C)ccc3cc2C#N)c(OC)c1", "Potency": "inconclusive: 1.78 µM [inhibitor, full curve, poor fit]"}
{"smiles": "N#C/C(=C\\c1cccc(Br)c1)C(=O)N1CCCCC1", "Potency": "inconclusive: 35.5 µM [inhibitor, single point]"}
{"smiles": "CC1CC(=O)Nc2ccccc2N1C(=O)CSc1ccc2ccccc2n1", "note": "(stereo not drawn)", "Potency": "inconclusive: 11.2 µM [inhibitor, partial curve, poor fit]"}
{"smiles": "Cc1ccc2c(c1)N(C)/C(=C/c1cccc[n+]1CCO)S2", "Potency": "inconclusive: 11.2 µM [inhibitor, partial curve, poor fit]"}
{"smiles": "Cc1ccc(-n2nnnc2Sc2nc([N+](=O)[O-])nn2C)cc1", "Potency": "inconclusive: 25.1 µM [inhibitor, single point]"}
{"smiles": "O=C(CN1CCCCC1)NC(=O)NC1CCCC1", "activity, negative = active": "inactive: 0.692%"}
{"smiles": "COc1ccc(-c2cc(-c3cccs3)nc(OC)c2C#N)cc1OC", "Potency": "inconclusive: 10 µM [inhibitor, partial curve, poor fit]"}
{"smiles": "COc1cccc(NC2c3ccccc3C(=O)N2Cc2ccccc2Cl)c1", "note": "(stereo not drawn)", "activity, negative = active": "inactive: -5.13%"}
{"smiles": "Nc1ccc(C(=O)N/N=C/c2cn(Cc3ccc(F)cc3)c3ccccc23)cc1", "activity, negative = active": "inactive: -2.28%"}
{"smiles": "OCC1(Cc2ccc(Cl)cc2)CCN(CCCc2ccccc2)CC1", "activity, negative = active": "inactive: 4.94%"}
{"smiles": "CC(=O)N1CCN(c2nnc(-c3ccc(C)cc3)c3ccccc23)CC1", "activity, negative = active": "inactive: -3.89%"}
{"smiles": "COc1ccc(C)cc1NC(=O)CSc1nc2scc(C)c2c(=O)[nH]1", "Potency": "inconclusive: 31.6 µM [inhibitor, partial curve, poor fit]"}
{"smiles": "CC1=CC(=C(C#N)C#N)c2ccccc2N1C", "Potency": "inconclusive: 35.5 µM [inhibitor, single point]"}
{"smiles": "Cc1cc(=O)oc2cc(OCC(=O)NCCc3c[nH]c4ccc(F)cc34)ccc12", "activity, negative = active": "inactive: 0.661%"}
{"smiles": "CCN(CC)CCN(CC)c1ccc(/C=C/c2ccnc3ccccc23)cc1", "activity, negative = active": "inactive: -12.3%"}
{"smiles": "OCCNCCOc1ccccc1F", "activity, negative = active": "inactive: -0.334%"}
{"smiles": "Nc1cccc[n+]1C(c1ccnc2ccccc12)[n+]1ccccc1N", "activity, negative = active": "inactive: -2.41%"}
{"smiles": "CC(=O)C1=C(C)NC(SCC(=O)c2ccc(Cl)cc2)=C(C#N)C1c1ccco1", "note": "(stereo not drawn)", "Potency": "inconclusive: 25.1 µM [inhibitor, single point]"}
{"smiles": "Cc1nc2ccc(S(=O)(=O)Nc3ccccc3C)cc2s1", "Potency": "inconclusive: 10 µM [inhibitor, partial curve]"}
{"smiles": "CCOc1ccccc1NC(=O)CN(c1ccc(C)cc1)S(=O)(=O)c1c(C)n[nH]c1C", "activity, negative = active": "inactive: 1.73%"}
{"smiles": "COc1ccccc1-n1c(SCC(=O)NCC2CCCO2)nc2c([nH]c3ccccc32)c1=O", "note": "(stereo not drawn)", "activity, negative = active": "inactive: -0.898%"}
{"smiles": "Cc1cc(C)n(C(=O)/C(C#N)=N\\Nc2ccccc2[N+](=O)[O-])n1", "activity, negative = active": "inactive: -0.36%"}
{"smiles": "CC1(C)C2CCC(CN=C(N)CSS(=O)(=O)O)C1C2", "note": "(stereo not drawn)", "activity, negative = active": "inactive: -0.528%"}
{"smiles": "CCOc1ccc(C(C)=O)cc1COc1cccnc1[N+](=O)[O-]", "Potency": "inconclusive: 8.91 µM [inhibitor, partial curve, poor fit]"}
{"smiles": "CCOc1cc(-c2nnc(SCC(=O)NCc3ccccc3)nc2-c2ccc(OC)c(OCC)c2)ccc1OC", "Potency": "inconclusive: 3.55 µM [inhibitor, full curve, poor fit]"}
{"smiles": "COc1ccc2nc3ccccc3nc2c1NC(=O)c1ccc(Cl)cc1Cl", "Potency": "active: 3.98 µM"}
{"smiles": "O=C1C(Nc2ccccc2)=C(NS(=O)(=O)c2ccccc2)C(=O)c2ccccc21", "activity, negative = active": "inactive: 0.0798%"}
{"smiles": "COc1ccc(NC(=O)C2(C)Cc3c(-c4ccc(N(C)C)cc4)ccnc3O2)cn1", "note": "(stereo not drawn)", "Potency": "inconclusive: 10 µM [inhibitor, partial curve]"}
{"smiles": "O=C(Cc1ccc(S(=O)(=O)N2CCOCC2)s1)Nc1cc(C(F)(F)F)ccc1N1CCCC1", "activity, negative = active": "inactive: -0.733%"}
{"smiles": "CCCC(=O)NC(=S)Nc1nc(-c2ccc(OC)cc2)cs1", "Potency": "inconclusive: 1.26 µM [inhibitor, full curve, poor fit]"}
{"smiles": "Cc1ccc(C(=O)N/C(=C\\c2ccc(F)cc2)C(=O)NCCCn2ccnc2)cc1", "activity, negative = active": "inactive: -3.02%"}
{"smiles": "Cc1ccc2nc(/C(C#N)=C\\c3cc(O)ccc3[N+](=O)[O-])[nH]c2c1", "Potency": "inconclusive: 35.5 µM [inhibitor, partial curve, poor fit]"}
{"smiles": "CCOc1ccc(/C=C2\\SC(N3CCc4ccccc4C3)=NC2=O)cc1", "activity, negative = active": "inactive: -3.99%"}
{"smiles": "Cc1cc(-c2nc(C)c(C(=O)NN)s2)no1", "Potency": "inconclusive: 8.91 µM [inhibitor, partial curve, poor fit]"}
{"smiles": "CC(C)(C)c1nnc2sc(SCC(=O)c3ccc4c(c3)OCCO4)nn2c1=O", "Potency": "inconclusive: 35.5 µM [inhibitor, single point]"}
{"smiles": "Cc1cc(C(=O)N2CCC(C(N)=O)CC2)c(C)o1", "activity, negative = active": "inactive: 1.05%"}
{"smiles": "CCCOc1c(Br)cc(C(N)=O)cc1OCC", "Potency": "inconclusive: 35.5 µM [inhibitor, single point]"}
{"smiles": "CN1CCC(N(C)CC(=O)Nc2ccc3c(c2)OC(F)(F)O3)CC1", "activity, negative = active": "inactive: -0.165%"}
{"smiles": "Cc1cc(C)c2c(n1)SCC(=O)N2CC(=O)Nc1cccc(C)c1C", "activity, negative = active": "inactive: 7.49%"}
{"smiles": "Cn1c(=O)c2cc(NC(=O)Cc3cccc4ccccc34)ccc2n1-c1ccccc1", "Potency": "inconclusive: 6.31 µM [inhibitor, full curve]"}
{"smiles": "COc1cccc(C(=O)/C=C/c2ccc(OCC#N)c(OC)c2)c1", "Potency": "inconclusive: 10 µM [inhibitor, partial curve, poor fit]"}
{"smiles": "COc1ccc(CN2[C@@H](CC(C)=O)c3ccc(/C=C/C(C)=O)cc3S2(=O)=O)cc1", "Potency": "inconclusive: 35.5 µM [inhibitor, single point]"}
{"smiles": "Cc1ccccc1C(CC(=O)c1cccs1)C(C#N)C#N", "note": "(stereo not drawn)", "Potency": "inconclusive: 14.1 µM [inhibitor, single point]"}
{"smiles": "CCCCNc1cc(N2CCN(C3CCCCC3)CC2)c2noc3c2c1C(=O)c1ccccc1-3", "Potency": "inconclusive: 3.98 µM [inhibitor, single point]"}
{"smiles": "O=C(CN1C(=O)CSc2cc(S(=O)(=O)N3CCCCCC3)ccc21)NCCc1ccccc1", "activity, negative = active": "inactive: 1.72%"}
{"smiles": "CO/N=C\\CC(=O)Nc1ccc(Oc2ccccc2)cc1", "Potency": "inconclusive: 3.16 µM [inhibitor, full curve]"}
{"smiles": "CCn1c(Cc2ccccc2)nnc1SCC(=O)N1CCCCC1", "activity, negative = active": "inactive: -2.94%"}
{"smiles": "CCOc1ccc(S(=O)(=O)NCCc2csc3nc(-c4cccc(C)c4)nn23)cc1", "activity, negative = active": "inactive: -2.4%"}
{"smiles": "CCOc1ccc(Cc2c(Cl)nc(SC)nc2N(C)C)cc1", "Potency": "inconclusive: 3.98 µM [inhibitor, partial curve, poor fit]"}
{"smiles": "O=C(N/N=C/c1ccc([N+](=O)[O-])o1)c1cn2ccc3ccccc3c2n1", "Potency": "inconclusive: 14.1 µM [inhibitor, partial curve, poor fit]"}
{"smiles": "O=C1CSC2(C(=O)N(Cc3c(F)cccc3Cl)c3ccccc32)N1c1ccc(F)c(F)c1", "note": "(stereo not drawn)", "activity, negative = active": "inactive: 4.88%"}
{"smiles": "Cc1[nH]nc2c1C(c1ccsc1C)C(C#N)=C(N)O2", "note": "(stereo not drawn)", "activity, negative = active": "inactive: -16.2%"}
{"smiles": "COC(=O)c1sc(NC(=O)c2ccc([N+](=O)[O-])o2)c(C#N)c1C", "Potency": "inconclusive: 7.94 µM [inhibitor, partial curve, poor fit]"}
{"smiles": "Cn1cccc1/C=C1\\CCC/C(=C\\c2cccn2C)C1=O", "Potency": "inconclusive: 3.16 µM [inhibitor, partial curve, poor fit]"}
{"smiles": "O=C1N=C(N2C=CC(=C3C=CNC=C3)C=C2)/C(=C/N=NC(=O)c2ccccc2)S1", "activity, negative = active": "inactive: 0.15%"}
{"smiles": "COCCNC(=S)N/N=C(\\C)c1cccc(C(F)(F)F)c1", "activity, negative = active": "inactive: -4.87%"}
{"smiles": "Cc1ccc(O)c(/C=N/NC(=O)COc2ccc3c(C)cc(=O)oc3c2)c1", "Potency": "inconclusive: 28.2 µM [inhibitor, single point]"}
{"smiles": "C/C=C/c1ccc(OCCCCN2CC(C)CC(C)C2)c(OC)c1", "note": "(stereo not drawn)", "activity, negative = active": "inactive: 0.182%"}
{"smiles": "CC(=O)N1N=C2c3ccccc3CCC2C1c1ccc(F)cc1", "note": "(stereo not drawn)", "Potency": "inconclusive: 28.2 µM [inhibitor, single point]"}
{"smiles": "CC(=O)c1cccc(-c2ccnc3c2CC(C(=O)Nc2ccc(Cl)cc2)O3)c1", "note": "(stereo not drawn)", "Potency": "inconclusive: 3.16 µM [inhibitor, full curve]"}
{"smiles": "COc1ccc(/C(C)=N/Nc2nc3ccccc3nc2C)cc1", "Potency": "inconclusive: 3.55 µM [inhibitor, full curve, poor fit]"}
{"smiles": "COc1ccc(CCNC(=O)Cn2c(=O)cnc3ccccc32)cc1", "Potency": "inconclusive: 35.5 µM [inhibitor, single point]"}
{"smiles": "O=C(OCc1ccccc1)N1CCC2CC1c1cc(N3CCNCC3)ccc12", "note": "(stereo not drawn)", "activity, negative = active": "inactive: 0.855%"}
{"smiles": "O=C(C(Cl)Cl)N1c2ccccc2OCC1c1ccccc1", "note": "(stereo not drawn)", "Potency": "inconclusive: 20 µM [inhibitor, single point]"}
{"smiles": "COc1ccc(OCC(O)Cn2c(Br)nc3c2c(=O)[nH]c(=O)n3C)cc1", "note": "(stereo not drawn)", "Potency": "inconclusive: 35.5 µM [inhibitor, single point]"}
{"smiles": "O=C1C=C(c2ccccc2)C(=O)N1Nc1ccccc1", "Potency": "inconclusive: 25.1 µM [inhibitor, single point]"}
{"smiles": "CC(=O)c1cccc(NC(=O)Cn2c(=O)oc3cc(S(=O)(=O)NC4CCCC4)ccc32)c1", "activity, negative = active": "inactive: -2.78%"}
{"smiles": "CSc1ccc(C2NC(=O)c3c(sc4c3CCN(C)C4)N2)cc1", "note": "(stereo not drawn)", "Potency": "inconclusive: 31.6 µM [inhibitor, single point]"}
{"smiles": "COc1ccccc1/C=C1\\CCCC2=C1Nc1nnnn1C2c1ccccc1OC", "note": "(stereo not drawn)", "Potency": "inconclusive: 35.5 µM [inhibitor, single point]"}
{"smiles": "COc1ccc(S(=O)(=O)N2CCCN(S(=O)(=O)c3ccc(OC)cc3C)CC2)c(C)c1", "activity, negative = active": "inactive: -0.7%"}
{"smiles": "O=C1CC(c2ccccc2)CC(O)=C1C=Nc1ccc(O)cc1", "note": "(stereo not drawn)", "Potency": "inconclusive: 35.5 µM [inhibitor, single point]"}
{"smiles": "COc1ccc(C(=O)N/N=C/c2sc3ccccc3c2O)cc1", "Potency": "inconclusive: 12.6 µM [inhibitor, single point]"}
